# Laboratory results taken from the supplement of paper PMC8728848.
# Some of the results follow.
# B1: Lmo1413 (Listeria monocytogenes), Q8Y783 (protein)
# chain: MKHAKKSLFTFIIFMTILSITFNPFSAKAAPLMLNLPAPQVDQLYIGDDYITGKLQQEVPMHYPGNAAYVLFNNKQYNITDYTVENDVNFRLKLPKTLEAGDTLNYFTITGNVLDPVAYPGQESYKLAGPFSPIEKANIQVNYVDETNQTLATSDTLSGKLGETYTTSPKAIDGYQVKETPTNATGTYTTNTETIQINYVYEKTAVEGANVSVEYINEATNESIAPTETLSGKIGTTFQAEVKEIDGYELSQVPSNQSGTYTDQTQSVIFKYKKITTPDEVAKDVTVTYKDTKGNQLADPVILKGDIGSTFETEAKSFKGYKLTKTPSNHSSVFTSDSQEVEYVYSKDDAVITPPVTPVNPDKPIINPVKPVNPATSTVPNKNISKKNTTKTVNQTGKTSTALQLPKTGDSENNLPLIIGVSLLISGVYIFTTRRKRVK
# Legend:
# Assay in all cases: glycan array binding signal (z-score within array); higher = stronger binding
# Conditions in all cases: glycan notation: IUPAC condensed, linker removed
# [1] = target: Neu5Ac(a2-6)Gal(b1-4)GlcNAc(b1-2)Man(a1-3)Man(b1-4)GlcNAc(b1-4)GlcNAc
# How it was run: (§1)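 From the Consortium for Functional Glycomics database, 3228 arrays were curated, keeping only those whose protein sequence was available. Binding is given as a within-array Z-score averaged across arrays sharing a protein sequence and across linkers. Negative Z-scores can be read as non-binding.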
# [2] = target: Neu5Ac(a2-6)Gal(b1-4)GlcNAc(b1-2)Man(a1-3)[Gal(b1-4)GlcNAc(b1-2)Man(a1-6)]Man(b1-4)GlcNAc(b1-4)GlcNAc
# How it was run: as §1
# [3] = target: Neu5Ac(a2-6)Gal(b1-4)GlcNAc(b1-2)Man(a1-3)[GlcNAc(b1-2)Man(a1-6)]Man(b1-4)GlcNAc(b1-4)GlcNAc
# How it was run: as §1
# [4] = target: Neu5Ac(a2-6)Gal(b1-4)GlcNAc(b1-2)Man(a1-3)[GlcNAc(b1-2)Man(b1-4)GlcNAc(b1-2)Man(a1-6)]Man(b1-4)GlcNAc(b1-4)GlcNAc
# How it was run: as §1
# [5] = target: Neu5Ac(a2-6)Gal(b1-4)GlcNAc(b1-2)Man(a1-3)[Man(a1-6)]Man(b1-4)GlcNAc(b1-4)GlcNAc
# How it was run: as §1
# [6] = target: Neu5Ac(a2-6)Gal(b1-4)GlcNAc(b1-2)Man(a1-3)[Neu5Ac(a2-6)Gal(b1-4)GlcNAc(b1-2)Man(a1-6)]Man(b1-4)GlcNAc(b1-4)GlcNAc
# How it was run: as §1
# [7] = target: Neu5Ac(a2-6)Gal(b1-4)GlcNAc(b1-2)Man(a1-6)Man(b1-4)GlcNAc(b1-4)GlcNAc
# How it was run: as §1
# [8] = target: Neu5Ac(a2-6)Gal(b1-4)GlcNAc(b1-2)Man(a1-6)[Gal(b1-4)GlcNAc(b1-2)Man(a1-3)]Man(b1-4)GlcNAc(b1-4)GlcNAc
# How it was run: as §1
# [9] = target: Neu5Ac(a2-6)Gal(b1-4)GlcNAc(b1-2)Man(a1-6)[GlcNAc(b1-2)Man(a1-3)]Man(b1-4)GlcNAc(b1-4)GlcNAc
# How it was run: as §1
# [10] = target: Neu5Ac(a2-6)Gal(b1-4)GlcNAc(b1-2)Man(a1-6)[Man(a1-3)]Man(b1-4)GlcNAc(b1-4)GlcNAc
# How it was run: as §1
# [11] = target: Neu5Ac(a2-6)Gal(b1-4)GlcNAc(b1-3)Gal(b1-3)GlcNAc
# How it was run: as §1
# [12] = target: Neu5Ac(a2-6)Gal(b1-4)GlcNAc(b1-3)Gal(b1-4)GlcNAc
# How it was run: as §1
# [13] = target: Neu5Ac(a2-6)Gal(b1-4)GlcNAc(b1-3)Gal(b1-4)GlcNAc(b1-3)Gal(b1-4)GlcNAc
# How it was run: as §1
# [14] = target: Neu5Ac(a2-6)Gal(b1-4)GlcNAc(b1-3)Gal(b1-4)[Fuc(a1-3)]GlcNAc(b1-3)Gal(b1-4)[Fuc(a1-3)]GlcNAc
# How it was run: as §1
# [15] = target: Neu5Ac(a2-6)Gal(b1-4)GlcNAc(b1-3)GalNAc
# How it was run: as §1
# [16] = target: Neu5Ac(a2-6)Gal(b1-4)GlcNAc6S
# How it was run: as §1
# Neu5Ac(a2-6)GalNAc = target: Neu5Ac(a2-6)GalNAc
# How it was run: as §1
# [17] = target: Neu5Ac(a2-6)GalNAc(b1-4)GlcNAc
# How it was run: as §1
# [18] = target: Neu5Ac(a2-6)GlcNAc(b1-4)GlcNAc
# How it was run: as §1
# [19] = target: Neu5Ac(a2-6)GlcNAc(b1-4)GlcNAc(b1-4)GlcNAc
# How it was run: as §1
# Neu5Ac(a2-8)Neu5Ac = target: Neu5Ac(a2-8)Neu5Ac
# How it was run: as §1
# [20] = target: Neu5Ac(a2-8)Neu5Ac(a2-3)Gal(b1-4)Glc
# How it was run: as §1
# [21] = target: Neu5Ac(a2-8)Neu5Ac(a2-3)[GalNAc(b1-4)]Gal(b1-4)Glc
# How it was run: as §1
# [22] = target: Neu5Ac(a2-8)Neu5Ac(a2-8)Neu5Ac
# How it was run: as §1
# [23] = target: Neu5Ac(a2-8)Neu5Ac(a2-8)Neu5Ac(a2-3)Gal(b1-4)Glc
# How it was run: as §1
# [24] = target: Neu5Ac(a2-8)Neu5Ac(a2-8)Neu5Ac(a2-3)[GalNAc(b1-4)]Gal(b1-4)Glc
# How it was run: as §1
# [25] = target: Neu5Ac(a2-8)Neu5Ac(a2-8)Neu5Ac(a2-8)Neu5Ac(a2-3)[GalNAc(b1-4)]Gal(b1-4)Glc
# How it was run: as §1
# [26] = target: Neu5Ac(b2-6)Gal(b1-4)GlcNAc
# How it was run: as §1
# Neu5Ac(b2-6)GalNAc = target: Neu5Ac(b2-6)GalNAc
# How it was run: as §1
# [27] = target: Neu5Ac9Ac(a2-3)Gal(b1-3)GlcNAc
# How it was run: as §1
# [28] = target: Neu5Ac9Ac(a2-3)Gal(b1-4)GlcNAc
# How it was run: as §1
# [29] = target: Neu5Ac9Ac(a2-6)Gal(b1-4)GlcNAc
# How it was run: as §1
# [30] = target: Neu5Gc(a2-3)Gal(b1-3)GlcNAc
# How it was run: as §1
# [31] = target: Neu5Gc(a2-3)Gal(b1-3)[Fuc(a1-4)]GlcNAc
# How it was run: as §1
# Neu5Gc(a2-3)Gal(b1-4)Glc = target: Neu5Gc(a2-3)Gal(b1-4)Glc
# How it was run: as §1
# [32] = target: Neu5Gc(a2-3)Gal(b1-4)GlcNAc
# How it was run: as §1
# [33] = target: Neu5Gc(a2-3)Gal(b1-4)[Fuc(a1-3)]GlcNAc
# How it was run: as §1
# [34] = target: Neu5Gc(a2-6)Gal(b1-4)GlcNAc
# How it was run: as §1
# Neu5Gc(a2-6)GalNAc = target: Neu5Gc(a2-6)GalNAc
# How it was run: as §1
# [35] = target: Neu5Gc(b2-6)Gal(b1-4)GlcNAc
# How it was run: as §1
binder,measurement,setting,value
B1,glycan array binding signal (z-score),[1],-0.246
same,glycan array binding signal (z-score),[2],-0.261
same,glycan array binding signal (z-score),[3],-0.241
same,glycan array binding signal (z-score),[4],-0.269
same,glycan array binding signal (z-score),[5],-0.259
same,glycan array binding signal (z-score),[6],-0.268
same,glycan array binding signal (z-score),[7],-0.266
same,glycan array binding signal (z-score),[8],-0.282
same,glycan array binding signal (z-score),[9],-0.272
same,glycan array binding signal (z-score),[10],-0.265
same,glycan array binding signal (z-score),[11],-0.26
same,glycan array binding signal (z-score),[12],-0.206
same,glycan array binding signal (z-score),[13],-0.122
same,glycan array binding signal (z-score),[14],-0.196
same,glycan array binding signal (z-score),[15],-0.219
same,glycan array binding signal (z-score),[16],-0.248
same,glycan array binding signal (z-score),Neu5Ac(a2-6)GalNAc,0.061
same,glycan array binding signal (z-score),[17],-0.237
same,glycan array binding signal (z-score),[18],-0.193
same,glycan array binding signal (z-score),[19],-0.222
same,glycan array binding signal (z-score),Neu5Ac(a2-8)Neu5Ac,-0.2
same,glycan array binding signal (z-score),[20],-0.262
same,glycan array binding signal (z-score),[21],-0.22
same,glycan array binding signal (z-score),[22],-0.268
same,glycan array binding signal (z-score),[23],-0.246
same,glycan array binding signal (z-score),[24],-0.239
same,glycan array binding signal (z-score),[25],-0.214
same,glycan array binding signal (z-score),[26],-0.209
same,glycan array binding signal (z-score),Neu5Ac(b2-6)GalNAc,-0.028
same,glycan array binding signal (z-score),[27],-0.204
same,glycan array binding signal (z-score),[28],-0.267
same,glycan array binding signal (z-score),[29],-0.263
same,glycan array binding signal (z-score),[30],-0.192
same,glycan array binding signal (z-score),[31],-0.249
same,glycan array binding signal (z-score),Neu5Gc(a2-3)Gal(b1-4)Glc,-0.252
same,glycan array binding signal (z-score),[32],-0.208
same,glycan array binding signal (z-score),[33],-0.201
same,glycan array binding signal (z-score),[34],-0.254
same,glycan array binding signal (z-score),Neu5Gc(a2-6)GalNAc,0.2
same,glycan array binding signal (z-score),[35],-0.209
